From doi:10.1101/2024.10.16.618766 (bioRxiv, 2024) come the findings set out here.

This data set concerns the molecule itself. As to the kind of experiment: cryo-EM structure.

B1: hTRPV[…]L (human TRPV4 channel with the mutation F617L) (natural protein)
chain: not shown
For the protein B1, the “stoichiometry N” value was found to be 4.
